Measured values taken from the supplement of paper PMC12217912.
The list shows a part of the results. Sequences were assembled here from the parent chain. Inactive controls read about 0.05.

B1: TEV protease; numbered along this chain (parent)
chain: MGESLFKGPRDYNPISSSICHLTNESDGHTTSLYGIGFGPFIITNKHLFRRNNGTLVVQSLHGVFKVKDTTTLQQHLVDGRDMIIIRMPKDFPPFPQKLKFREPQREERICLVTTNFQTKSMSSMVSDTSCTFPSGDGIFWKHWIQTKDGQCGSPLVSTRDGFIVGIHSASNFTNTNNYFTSVPKNFMELLTNQEAQQWVSGWRLNADSVLWGGHKVFMVKPEEPFQPVKEATQL

Variants of: B1
Assay: raw area under fraction-flipped curve 0-4 h after induction (AUC4h, not background-subtracted), DNA-recorder readout of cleavage of the substrate (dimensionless); higher = more cleavage of the substrate by the protease variant
Conditions: temperature: 34 °C; time window: 0-4 h after rhamnose induction
Procedure: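 In vivo DNA recorder in E. coli TOP10(DE3) ΔrhaA at 34 °C. Each TEVp single-site mutant (parent TEVp 0) is paired with a single-site variant of the 7-mer TEVs (canonical ENLYFQ|S). The substrate sits between flexible linkers in a Bxb1-sfGFP-TEVs-SsrA fusion, so cleavage stabilises Bxb1 and speeds flipping of a recombination array, read by NGS. The value is the raw area under the fraction-flipped curve over 0-4 h after rhamnose induction (AUC4h), with ≥20 reads per time point. It is not background-subtracted; inactive controls average about 0.047.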
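Also: Bxb1 expression induced with 0.2% (w/v) L-rhamnose at OD600 near 0.5, cultures sampled hourly, flipped fraction per protease–substrate barcode pair counted by paired-end Illumina sequencing.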

| Variant | area with substrate ENLYFQA | area with substrate ENLYFQD | area with substrate ENLYFQG | area with substrate ENLYFQH | area with substrate ENLYFQK | area with substrate ENLYFQM | area with substrate ENLYFQN | area with substrate ENLYFQQ | area with substrate ENLYFQR | area with substrate ENLYFQS | area with substrate ENLYFQT | area with substrate ENLYFQW | area with substrate ENLYFQY | area with substrate ENLYFQC | area with substrate ENLYFQF | area with substrate ENLYFQI | area with substrate ENLYFQL | area with substrate ENLYFQP | area with substrate ENLYFQV | area with substrate ENLYFQE |
| --- | --- | --- | --- | --- | --- | --- | --- | --- | --- | --- | --- | --- | --- | --- | --- | --- | --- | --- | --- | --- |
| MDESLFKGPRDYNPISSSICHLTNESDGHTTSLYGIGFGPFIITNKHLFRRNNGTLVVQSLHGVFKVKDTTTLQQHLVDGRDMIIIRMPKDFPPFPQKLKFREPQREERICLVTTNFQTKSMSSMVSDTSCTFPSGDGIFWKHWIQTKDGQCGSPLVSTRDGFIVGIHSASNFTNTNNYFTSVPKNFMELLTNQEAQQWVSGWRLNADSVLWGGHKVFMVKPEEPFQPVKEATQL [G2D] | 0.0774 | 0.0585 | 0.127 | 0.0795 | 0.0659 | 0.0887 | 0.0769 | 0.062 | 0.0598 | 0.0959 | 0.0602 | 0.0424 | 0.0742 | – | – | – | – | – | – | – |
| MGEWLFKGPRDYNPISSSICHLTNESDGHTTSLYGIGFGPFIITNKHLFRRNNGTLVVQSLHGVFKVKDTTTLQQHLVDGRDMIIIRMPKDFPPFPQKLKFREPQREERICLVTTNFQTKSMSSMVSDTSCTFPSGDGIFWKHWIQTKDGQCGSPLVSTRDGFIVGIHSASNFTNTNNYFTSVPKNFMELLTNQEAQQWVSGWRLNADSVLWGGHKVFMVKPEEPFQPVKEATQL [S4W] | 0.075 | 0.0977 | – | 0.0723 | 0.0857 | 0.0928 | – | – | 0.0637 | 0.0849 | 0.0617 | 0.0519 | 0.0619 | 0.0843 | 0.0649 | 0.0483 | 0.0339 | 0.0769 | 0.0673 | – |
| MGESLQKGPRDYNPISSSICHLTNESDGHTTSLYGIGFGPFIITNKHLFRRNNGTLVVQSLHGVFKVKDTTTLQQHLVDGRDMIIIRMPKDFPPFPQKLKFREPQREERICLVTTNFQTKSMSSMVSDTSCTFPSGDGIFWKHWIQTKDGQCGSPLVSTRDGFIVGIHSASNFTNTNNYFTSVPKNFMELLTNQEAQQWVSGWRLNADSVLWGGHKVFMVKPEEPFQPVKEATQL [F6Q] | 0.0933 | – | – | – | – | 0.0729 | 0.0815 | – | 0.0436 | 0.0931 | 0.0614 | – | – | – | – | – | – | – | – | – |
| MGESLFKGKRDYNPISSSICHLTNESDGHTTSLYGIGFGPFIITNKHLFRRNNGTLVVQSLHGVFKVKDTTTLQQHLVDGRDMIIIRMPKDFPPFPQKLKFREPQREERICLVTTNFQTKSMSSMVSDTSCTFPSGDGIFWKHWIQTKDGQCGSPLVSTRDGFIVGIHSASNFTNTNNYFTSVPKNFMELLTNQEAQQWVSGWRLNADSVLWGGHKVFMVKPEEPFQPVKEATQL [P9K] | 0.0779 | 0.07 | 0.0862 | – | – | 0.083 | 0.0694 | – | 0.0715 | 0.0972 | – | 0.0749 | – | 0.0857 | – | 0.0616 | 0.0662 | – | 0.0545 | – |
| MGESLFKGYRDYNPISSSICHLTNESDGHTTSLYGIGFGPFIITNKHLFRRNNGTLVVQSLHGVFKVKDTTTLQQHLVDGRDMIIIRMPKDFPPFPQKLKFREPQREERICLVTTNFQTKSMSSMVSDTSCTFPSGDGIFWKHWIQTKDGQCGSPLVSTRDGFIVGIHSASNFTNTNNYFTSVPKNFMELLTNQEAQQWVSGWRLNADSVLWGGHKVFMVKPEEPFQPVKEATQL [P9Y] | 0.164 | – | 0.11 | 0.0786 | – | 0.0922 | 0.098 | 0.0666 | – | 0.112 | 0.0584 | 0.0687 | 0.0817 | 0.111 | – | 0.0592 | 0.0679 | 0.0428 | 0.0638 | 0.0605 |
| MGESLFKGPHDYNPISSSICHLTNESDGHTTSLYGIGFGPFIITNKHLFRRNNGTLVVQSLHGVFKVKDTTTLQQHLVDGRDMIIIRMPKDFPPFPQKLKFREPQREERICLVTTNFQTKSMSSMVSDTSCTFPSGDGIFWKHWIQTKDGQCGSPLVSTRDGFIVGIHSASNFTNTNNYFTSVPKNFMELLTNQEAQQWVSGWRLNADSVLWGGHKVFMVKPEEPFQPVKEATQL [R10H] | 0.0907 | 0.0641 | 0.0883 | – | 0.065 | 0.0918 | 0.0679 | – | 0.0741 | 0.0868 | 0.0588 | 0.0624 | – | 0.0856 | – | – | 0.058 | – | 0.0711 | 0.0677 |
| MGESLFKGPQDYNPISSSICHLTNESDGHTTSLYGIGFGPFIITNKHLFRRNNGTLVVQSLHGVFKVKDTTTLQQHLVDGRDMIIIRMPKDFPPFPQKLKFREPQREERICLVTTNFQTKSMSSMVSDTSCTFPSGDGIFWKHWIQTKDGQCGSPLVSTRDGFIVGIHSASNFTNTNNYFTSVPKNFMELLTNQEAQQWVSGWRLNADSVLWGGHKVFMVKPEEPFQPVKEATQL [R10Q] | 0.11 | 0.0651 | 0.102 | – | 0.0596 | 0.0979 | 0.074 | – | 0.0654 | 0.111 | 0.0661 | 0.0763 | 0.0877 | 0.108 | – | 0.0562 | 0.0494 | – | 0.0349 | – |
| MGESLFKGPRHYNPISSSICHLTNESDGHTTSLYGIGFGPFIITNKHLFRRNNGTLVVQSLHGVFKVKDTTTLQQHLVDGRDMIIIRMPKDFPPFPQKLKFREPQREERICLVTTNFQTKSMSSMVSDTSCTFPSGDGIFWKHWIQTKDGQCGSPLVSTRDGFIVGIHSASNFTNTNNYFTSVPKNFMELLTNQEAQQWVSGWRLNADSVLWGGHKVFMVKPEEPFQPVKEATQL [D11H] | 0.0822 | 0.0381 | – | – | 0.0706 | – | 0.0711 | – | 0.0704 | 0.0953 | 0.004 | – | 0.0492 | 0.106 | – | – | – | 0.0474 | 0.0671 | 0.0563 |
| MGESLFKGPRYYNPISSSICHLTNESDGHTTSLYGIGFGPFIITNKHLFRRNNGTLVVQSLHGVFKVKDTTTLQQHLVDGRDMIIIRMPKDFPPFPQKLKFREPQREERICLVTTNFQTKSMSSMVSDTSCTFPSGDGIFWKHWIQTKDGQCGSPLVSTRDGFIVGIHSASNFTNTNNYFTSVPKNFMELLTNQEAQQWVSGWRLNADSVLWGGHKVFMVKPEEPFQPVKEATQL [D11Y] | 0.0869 | 0.0644 | 0.103 | 0.108 | 0.0683 | 0.0777 | 0.0649 | – | 0.0606 | 0.095 | 0.0679 | 0.064 | 0.0942 | 0.101 | – | 0.0571 | 0.0451 | – | 0.0652 | – |
